Laboratory results from the supplement of paper PMC3334620.
Whole data set: some 33,000 sequences, median “E-score (-0.5 to 0.5)” near -0.017, cut for the highest 2% near 0.3. This is one part of the list.

molecular target: T1, Sut1 (UniProt P53032); test: PBM E-score (8-mer binding enrichment) (E-score (-0.5 to 0.5)); higher = stronger / more preferred TF binding; most listed sequences are background and not binding sites; details: protein concentration: 200 nM; construct: GST-full length
T1 sequence: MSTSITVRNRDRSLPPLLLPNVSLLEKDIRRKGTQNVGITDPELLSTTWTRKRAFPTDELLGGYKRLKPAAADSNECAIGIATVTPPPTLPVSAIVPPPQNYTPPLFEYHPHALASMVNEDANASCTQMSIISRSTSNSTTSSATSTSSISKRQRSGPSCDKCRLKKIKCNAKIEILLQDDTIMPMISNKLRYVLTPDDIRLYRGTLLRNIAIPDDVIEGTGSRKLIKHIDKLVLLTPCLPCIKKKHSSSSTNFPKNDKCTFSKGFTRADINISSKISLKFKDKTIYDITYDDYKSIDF
Protocol: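 Universal 'all 10-mer' protein binding microarrays (Agilent AMADID 015681) probed with GST-tagged S. cerevisiae TFs (full-length or DBD) made by in vitro transcription/translation (PURExpress), about 100-200 nM. Bound TF was detected with fluorescent anti-GST. Each ungapped 8-mer (which stands for itself and its reverse complement) is scored by the PBM enrichment score (E-score), a modified Wilcoxon-Mann-Whitney statistic from -0.5 to +0.5, computed with the Universal PBM Analysis Suite. Scale: above 0.35 generally sequence-specific binding.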

| Sequence | PBM E-score |
| --- | --- |
| ATCTAGCC | -0.141 |
| ACATTGAA | 0.0921 |
| GGGGCGCA | -0.366 |
| ACACGCTC | 0.0804 |
| ATTAGCTC | 0.095 |
| CCGCACCG | -0.0103 |
| ATAACCTA | 0.121 |
| CTTGCCGA | -0.0407 |
| ACCTCAGC | -0.106 |
| AAGGAATG | -0.0323 |
| AATATGAG | 0.14 |
| ATCTTCAA | 0.231 |
| CGTACAGA | 0.00189 |
| GACGAATA | 0.177 |
| TCCTCGCA | -0.241 |
| CAAAGATG | 0.0218 |
| CCATCCTC | -0.0771 |
| AGTCCTGG | -0.291 |
| AGCACTCG | -0.0717 |
| CGCATCTC | -0.0996 |
| ACCCGTCG | -0.319 |
| AGGAAAGA | 0.0593 |
| AACTTTGA | 0.0923 |
| ATCAAGAC | -0.0472 |
| AGTTTGAC | 0.0556 |

| Sequence | PBM E-score |
| --- | --- |
| CCACTTCC | -0.0469 |
| ACGGATAA | 0.103 |
| CGCGGAAA | 0.061 |
| CAGCGACA | -0.222 |
| GACCCATC | -0.141 |
| GAAACACA | 0.206 |
| CATTTCGG | 0.00789 |
| CGCAGAAC | -0.0566 |
| CTGCTGCA | -0.131 |
| CTCTACGA | -0.147 |
| AGCCTCCG | 0.0179 |
| TACATAGA | 0.193 |
| CAGTGTCA | -0.137 |
| CCACGCTA | -0.189 |
| ACAGGTTG | -0.155 |
| CCGTTTCA | 0.168 |
| AACCGGCG | -0.0227 |
| GTCTCACA | 0.0297 |
| AGAGGGGA | -0.113 |
| AAGTCATA | 0.077 |
| GATACTAA | 0.141 |
| GATTGGAA | 0.135 |
| ACGCAAGA | 0.00812 |
| GCAACCGC | -0.132 |
| ATGGAAAG | 0.116 |

| Sequence | PBM E-score |
| --- | --- |
| TCCTCAAA | -0.0389 |
| CGCTCCCC | -0.416 |
| AGGGTAAT | 0.00404 |
| ACGATTCA | 0.023 |
| TATGCAAA | -0.113 |
| GGCCGACC | -0.234 |
| AATGCATC | 0.17 |
| AACGGGCA | -0.0792 |
| AGAATATA | 0.117 |
| AAATGCTA | 0.0496 |
| CTCACTAC | 0.0485 |
| AAAAAGCT | -0.0213 |
| AATTAGAG | -0.0168 |
| ACTCAGTG | -0.106 |
| CCTCGTCA | 0.0287 |
| CCCTGTAA | -0.149 |
| CTAGTTGA | 0.0806 |
| AGTCTAAG | 0.23 |
| CAGCTTGA | -0.11 |
| ATTCTCAA | 0.12 |
| GCAGTTCC | 0.00048 |
| AGTACATA | 0.134 |
| ACACAGAC | 0.0737 |
| CGAGGGCG | -0.297 |
| AGGTTAAA | 0.0365 |

| Sequence | PBM E-score |
| --- | --- |
| ACCATATC | 0.075 |
| ATATATGG | 0.17 |
| AGAGAGCC | -0.224 |
| AGCATCTG | -0.219 |
| ATGTTTTA | 0.128 |
| TAACCTGA | -0.0476 |
| ACGGACGA | 0.1 |
| TTGATCAA | 0.0321 |
| GTTGCGGA | 0.167 |
| CCAAGCCC | -0.234 |
| CAGTAACA | 0.153 |
| AGCTCTCC | -0.213 |
| ACGAATCC | 0.0809 |
| TACAACCA | 0.143 |
| CTTTTATA | 0.0778 |
| CCTTACAG | -0.0957 |
| CCGCAGTC | 0.0158 |
| ACCAGGCA | -0.235 |
| TACTTAGA | 0.0875 |
| AGAGGGCC | -0.153 |
| AAATTGGG | 0.115 |
| ATTCTACA | 0.163 |
| CTAACGCC | -0.0618 |
| ATCAGTGG | -0.137 |
| GTGGGATA | -0.0623 |

| Sequence | PBM E-score |
| --- | --- |
| ACATTGGG | -0.0456 |
| GCTATGTA | -0.129 |
| CCATGAGA | 0.00883 |
| AGGGTTAT | -0.0349 |
| AGTGCACA | -0.128 |
| AATATGGC | -0.143 |
| AGCCTGTC | -0.104 |
| CAAAATGC | -0.0633 |
| CCGAGTTC | 0.0827 |
| TCCGGGCA | 0.255 |
| ATAGGGCC | -0.144 |
| TCCTAGAA | -0.118 |
| CGATACGC | -0.125 |
| CCTCGATC | 0.00217 |
| GAAACCAA | 0.153 |
| ACGTGCTG | -0.18 |
| AAGCGCGC | 0.105 |
| GAGGAGAC | -0.0705 |
| AGTGTTCA | 0.165 |
| CTGTGCCC | -0.251 |
| ACCCGTCC | -0.28 |
| GCCTCCAC | -0.248 |
| AGCTCGTG | 0.0432 |
| AAACGTTT | 0.156 |
| CTGCACGA | -0.148 |

| Sequence | PBM E-score |
| --- | --- |
| ACCGATCC | -0.0136 |
| CCTTTAGC | -0.0413 |
| CATACCGC | -0.182 |
| GCATATGA | 0.112 |
| AAACAGTA | 0.144 |
| CGAGCCTA | -0.0841 |
| AATGGGCG | -0.18 |
| AAGAGTTA | 0.12 |
| ACGCGCTG | -0.0922 |
| CCACGGTA | -0.115 |
| TGGGGGAA | -0.285 |
| GTCACCAA | -0.0973 |
| AATGGGGA | -0.0922 |
| GACACAAC | -0.102 |
| CCCTATTA | -0.0365 |
| ACAGGGTG | -0.226 |
| ATCTCAAC | 0.15 |
| AGAGCGCG | -0.155 |
| CAGGCCAA | -0.165 |
| GAATCAGC | -0.104 |
| AGTTAACT | 0.218 |
| CATGTCAA | -0.0254 |
| CCAAAGCG | 0.0511 |
| ATATTGGG | 0.0483 |
| AATGACCC | -0.117 |

| Sequence | PBM E-score |
| --- | --- |
| CCCCTATA | -0.216 |
| AATACGCG | 0.0191 |
| TATCATCA | 0.143 |
| CATCGAAA | 0.129 |
| ACTCGATA | 0.125 |
| AATGTCGG | 0.0666 |
| ACAGAGCC | -0.063 |
| CCGTGTCG | -0.117 |
| GGCGTTAA | -0.0162 |
| ACAGCGGT | -0.107 |
| GTCAACTA | 0.179 |
| ATCACGGA | 0.402 |
| CTACGTCA | -0.255 |
| CACGTTAG | -0.0671 |
| CACCAATC | -0.0842 |
| CTGGCAGA | -0.012 |
| ACGAGTCT | -0.0823 |
| GCCAGACC | -0.0239 |
| CTACGGAG | 0.381 |
| CGGGATAG | -0.149 |
| AGGGCTTG | -0.0777 |
| CAAGCTAC | -0.134 |
